This is an account of results in paper PMC4336329 (PLoS ONE, 2015).

Among all 310,000 compounds or so, about 14,000 (4.5%) showed an effect of 50% or more. The effect is printed as a negative number. The list shows a part of the results.
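Further: peak tail current of the secondary pulse compared with the same well before compound.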

human ether-à-go-go-related gene (hERG) potassium channel, sequence (Q12809 whole entry, looked up): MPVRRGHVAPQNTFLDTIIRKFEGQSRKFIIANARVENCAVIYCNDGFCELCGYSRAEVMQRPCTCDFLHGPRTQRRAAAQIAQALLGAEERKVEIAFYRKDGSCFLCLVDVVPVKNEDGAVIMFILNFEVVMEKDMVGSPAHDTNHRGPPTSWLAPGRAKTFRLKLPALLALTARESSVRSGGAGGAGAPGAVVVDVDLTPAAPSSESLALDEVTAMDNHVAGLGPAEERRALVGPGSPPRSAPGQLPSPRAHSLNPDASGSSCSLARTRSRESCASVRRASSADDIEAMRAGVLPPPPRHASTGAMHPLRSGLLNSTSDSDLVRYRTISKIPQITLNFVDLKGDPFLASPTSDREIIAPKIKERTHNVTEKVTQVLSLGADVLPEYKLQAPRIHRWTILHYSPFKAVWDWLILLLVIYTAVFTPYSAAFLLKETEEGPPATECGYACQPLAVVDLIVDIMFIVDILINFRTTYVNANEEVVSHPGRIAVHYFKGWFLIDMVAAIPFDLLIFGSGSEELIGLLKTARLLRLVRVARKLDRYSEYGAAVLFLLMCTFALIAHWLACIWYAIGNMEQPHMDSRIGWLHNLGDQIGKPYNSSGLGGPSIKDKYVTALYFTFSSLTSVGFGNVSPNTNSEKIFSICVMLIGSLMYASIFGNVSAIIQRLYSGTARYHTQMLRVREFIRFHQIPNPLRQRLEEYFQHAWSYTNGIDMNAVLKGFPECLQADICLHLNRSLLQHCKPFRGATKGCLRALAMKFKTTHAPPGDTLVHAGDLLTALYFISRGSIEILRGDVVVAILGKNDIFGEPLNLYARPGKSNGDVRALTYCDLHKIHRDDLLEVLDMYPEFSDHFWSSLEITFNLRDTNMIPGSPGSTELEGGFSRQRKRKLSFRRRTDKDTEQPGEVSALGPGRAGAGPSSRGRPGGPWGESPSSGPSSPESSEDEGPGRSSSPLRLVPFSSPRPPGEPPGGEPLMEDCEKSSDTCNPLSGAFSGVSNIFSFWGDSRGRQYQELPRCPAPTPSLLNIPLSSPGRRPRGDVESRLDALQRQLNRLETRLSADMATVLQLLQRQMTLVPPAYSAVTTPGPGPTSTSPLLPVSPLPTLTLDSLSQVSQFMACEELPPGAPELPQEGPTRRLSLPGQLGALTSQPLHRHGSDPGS

The experiment addresses human ether-à-go-go-related gene (hERG) potassium channel (human, UniProt Q12809). In words: primary screen, population patch clamp on CHO cells stably expressing hERG.
`O=C(Nc1nc(-c2ccco2)c(-c2ccco2)s1)C1CC(=O)N(c2ccc3c(c2)OCCO3)C1` (stereo not drawn): the “hERG current change (%, negative = inhibition) at 10uM” value is given as -3.9%.
As to `Cc1cc2c(=O)oc(-c3ccc(F)cc3)nc2s1`, the “hERG current change (%, negative = inhibition) at 10uM” value came to 23.3%.
The same measure for `N=C1C(c2nc(-c3ccc(F)cc3)cs2)=C(O)CN1Cc1ccc(Cl)cc1`: 2.83%; for `Nn1c(SCC(=O)N2CCCc3ccccc32)nncc1=O`: 6.33%.
Next, `COc1ccccc1N1CCN(C(=O)c2ccco2)CC1`: 16.5%.
Turning to `O=C(O)c1ccccc1-c1ccccc1C(=O)Nc1ccc2c(c1)CCC2`, the “hERG current change (%, negative = inhibition) at 10uM” value amounted to 16.8%.
Next, `CC(C)c1ccccc1NC(=O)Cn1c(-c2ccccc2Cl)nc2ccccc21`: -15.1%; `COc1ccccc1N/C(=N/S(=O)(=O)c1ccc(C)cc1)c1ccccc1`: -31%; `CCS(=O)(=O)NCc1ccc2c(c1)cc(C)n2C`: 12.4%.
Next, `COc1cccc(C(=O)N2CCN(Cc3ccccc3[N+](=O)[O-])CC2)c1`: -14.5%; `COc1c(O)ccc(/C=C(\C#N)c2nc3ccccc3[nH]2)c1[N+](=O)[O-]`: -0.111%.
`O=c1cccc2n1CC1CC2CN(S(=O)(=O)c2ccc(F)cc2)C1` (stereo not drawn): the “hERG current change (%, negative = inhibition) at 10uM” value came to 12.1%.
Next, `Cc1c(Cl)c(C(=O)NC2C3CC4CC(C3)CC2C4)nn1C` (stereo not drawn): -9.28%; `O=C(CN1CCN(c2ccccn2)CC1)Nc1cc(F)ccc1F`: -26%; `O=C1C=CC(=O)N1c1ccc(Sc2ccc([N+](=O)[O-])cc2)cc1`: 4.77%.
Next, `Cc1cc(C)c(S(C)(=O)=O)c(N(C)N)n1`: 21.8%.
The same measure for `Cc1ccc(S(=O)(=O)Nc2cc(C(=O)NCCN(C)C)ccc2N2CCCCC2)cc1`: -36.8%; for `O=C(Cc1ccc([N+](=O)[O-])cc1)c1c(O)cc(O)cc1O`: -0.546%.
Consider `COc1ccc(C(=O)OCC(=O)c2cc(C)n(CC3CCCO3)c2C)cc1[N+](=O)[O-]` (stereo not drawn), for which the “hERG current change (%, negative = inhibition) at 10uM” value is -42.9%.
The same measure for `Nc1c(C(=O)CSc2n[nH]c(-c3ccccc3Br)n2)c(=O)[nH]c(=O)n1C1CC1`: 7.8%; for `COc1cc(-c2c(NC(=O)c3ccco3)oc3ccccc3c2=O)cc(OC)c1OC`: 8.23%; for `O=C(CSc1nnnn1-c1ccccc1)NC1CCCc2ccccc21` (stereo not drawn): -9.9%.
On to `COCCNC(=O)c1cc(-c2ccccc2OC)on1`, for which the “hERG current change (%, negative = inhibition) at 10uM” value is given as -2.42%.
With `CC(=O)c1cc2c(cc1NC(=O)Cn1nc(C)c(C)c(C#N)c1=O)OCO2`, the “hERG current change (%, negative = inhibition) at 10uM” value was -6.83%.
Next, `CCCn1nc(NC(=O)C(C)(C)C)c2cc3cc(OC)ccc3nc21`: -31.5%.
Next, `Cc1ccc(-c2nnc3n2N=C(c2ccccc2Br)CS3)cc1`: -1%.
For `O=C(NCc1cccs1)C1CCCN(C(=O)Nc2ccc(F)cc2)C1` (stereo not drawn), the “hERG current change (%, negative = inhibition) at 10uM” value is recorded as -16.9%.
Next, `CCCC(=O)Nc1cc2c3c(c1)CCN3C(=O)CC2`: 25.8%; `COC(=O)C(CCCCNC(=O)c1ccc([N+](=O)[O-])cc1)NC(=O)c1ccc([N+](=O)[O-])cc1` (stereo not drawn): -76.3%.
Next, `CCOc1cc(NC(=O)C2CC2)c(OCC)cc1NC(=O)c1ccccn1`: -9.6%; `CO/N=C/c1ccc(N2CCN(C(=O)c3ccc(F)cc3)CC2)c([N+](=O)[O-])c1`: -78.3%; `CCOc1c(Br)cc(CNCc2cccs2)cc1OC.Cl`: -25.6%.
The same measure for `CCC(=O)N1CCN(c2ccc(Cl)cc2NC(=O)Cc2ccccc2)CC1`: -46.3%; for `CCc1nnc(NC(=O)CSc2ccc(-c3ccccc3OC)nn2)s1`: -7.08%; for `CC(C)CCCN1C(N(C)C)=NC[C@@H]1C`: -1.76%.
For `CN(C(=O)C1CCC(=O)N(CCc2ccc(Cl)cc2)C1)C1CCOCC1` (stereo not drawn), the “hERG current change (%, negative = inhibition) at 10uM” value stood at 10.7%.
As for `COc1cccc(-c2noc(-c3ccc(Cl)nc3)n2)c1`, the “hERG current change (%, negative = inhibition) at 10uM” value came to 21.9%.
With `Cc1cc(C)c(N=C2CCCN2Cc2ccccc2)c(C#N)c1`, the “hERG current change (%, negative = inhibition) at 10uM” value is reported as -12.8%.
The same measure for `CCOc1ccc(Cn2c(=O)oc3ccc(C)cc32)cc1OC`: 12.8%.
Next, `CC1=C(C(=O)OCc2ccccc2)C(c2ccccc2Cl)NC(=O)N1CCCC(=O)O` (stereo not drawn): 6.84%; `CC(Oc1ccc2c(-c3ccccc3)cc(=O)oc2c1)C(=O)NCC(O)c1ccccc1` (stereo not drawn): -13%.
The same measure for `CC1=C(C(=O)OCc2ccccc2)C(c2ccc(C)o2)C2=C(CCCC2=O)N1` (stereo not drawn): -23.7%.
In the case of `CC(NC(=O)c1ccc(NC(=O)CC2SC(N3CCCC3)=NC2=O)cc1)c1ccc(S(N)(=O)=O)cc1` (stereo not drawn), the “hERG current change (%, negative = inhibition) at 10uM” value is 15.3%.
With `COc1ccc(/C=C/C(=O)Nc2cc(F)ccc2C)cc1S(=O)(=O)N1CCOCC1`, the “hERG current change (%, negative = inhibition) at 10uM” value is -2.78%.
With `COC(=O)c1ccccc1NS(=O)(=O)c1ccc(O)c(C(=O)O)c1`, the “hERG current change (%, negative = inhibition) at 10uM” value was -11.6%.
The same measure for `CC1OC(Oc2ccc3ccc(=O)oc3c2-c2c(O)ccc3cc(Oc4ccc5ccc(=O)oc5c4)c(=O)oc23)C(O)C(O)C1O` (stereo not drawn): 4.52%; for `COc1ccc(N2CC(C(=O)N3CCN(C(=O)c4ccco4)CC3)CC2=O)cc1` (stereo not drawn): -53.3%; for `COc1ccc(C(=O)CC(=O)C(=O)Nc2ccccc2Cl)cc1`: 11%.
Next, `Cc1ccc(C)c(C(=O)Cn2ncc(Cl)c(Cl)c2=O)c1`: 8.24%; `O=C(C1=C[C@H](c2coc3ccccc3c2=O)C[C@H](OCCCCO)O1)N1CCN(Cc2ccccc2)CC1`: -61.5%; `Cc1ccc(C(=O)NCCCn2ccnc2)cc1[N+](=O)[O-]`: 4.53%.
Next, `Cn1c(=O)c2[nH]c(CN3CCN(Cc4ccccc4)CC3)nc2n(C)c1=O`: -6.12%; `Cc1cc(NC(=O)c2ccccc2)sc1C`: 5.55%.
`Fc1cccc(Cl)c1CSC1=NCCS1`: the “hERG current change (%, negative = inhibition) at 10uM” value is reported as 4.97%.
With `COc1ccccc1C(=O)COC(=O)c1nc2nc(C)cc(C)n2n1`, the “hERG current change (%, negative = inhibition) at 10uM” value came out at 13.9%.
The same measure for `CCOC(=O)C1(CCc2ccccc2)CCN(Cc2cccc3nccnc23)CC1`: -60.5%.
The same measure for `COc1ccccc1C(=O)NNC(=O)CCCN1C(=O)/C(=C/c2cccs2)SC1=S`: 14.6%; for `CCC(C(=O)O)n1nnc(-c2ccc(-c3ccc(OC)cc3)cc2)n1` (stereo not drawn): 12%; for `O=C(COC(=O)Cc1ccsc1)Nc1ccc(F)cc1Cl`: 9.43%.
Next, `COc1ccc(CCN(C)C(=O)C2CCCN(Cc3ccc(OC)c(OC)c3)C2)cc1OC` (stereo not drawn): 9.21%; `CC1(C)CC(=O)C(C=NCc2cccnc2)=C(O)C1`: -7.87%.
For the compound `Nc1nc[nH]c(=O)c1N=Cc1ccccc1`, the “hERG current change (%, negative = inhibition) at 10uM” value amounted to 25.3%.
With `COc1ccc(C)cc1NC(=O)C(=O)N/N=C(\C)CC(=O)Nc1cccnc1`, the “hERG current change (%, negative = inhibition) at 10uM” value amounted to 2.77%.
The same measure for `Cc1cc(C)cc(C(=O)N2CCCCCC2)c1`: -0.852%; for `O=C(C1CCC(=O)N1Cc1ccccc1Cl)N1CCN(c2ccc(F)cc2)CC1` (stereo not drawn): -44.9%; for `COc1ccc(CNS(=O)(=O)CCNC(=O)c2ccccc2)cc1`: -4.36%.
The same measure for `c1ccc(-c2cc(N3CCCCC3)ncn2)cc1`: -9.9%.
Next, `O=C(NC1C2CCCC1CN(C1CC1)C2)c1ccc(Cl)cc1` (stereo not drawn): 5.81%; `Cc1cc(C)c2sc(N(CCCN(C)C)C(=O)c3ccc(S(=O)(=O)N4CCc5ccccc5C4)cc3)nc2c1.Cl`: 4.44%; `O=C(c1ccc(S(=O)(=O)Nc2ccccc2)cc1)N1CCCC1`: 11.4%.
In the case of `COc1ccc(NC(=O)Cc2c(SC)c3ccccc3n2Cc2ccccc2)cc1`, the “hERG current change (%, negative = inhibition) at 10uM” value was 12.6%.
Next, `Cc1ccc(CN2C(=O)CN=C(c3ccccc3)c3ccccc32)cc1`: -4.94%; `Cc1nn(-c2ccccc2)c2nc(N)c(C#N)c(-c3ccc(C(C)(C)C)cc3)c12`: 16.7%; `CC(C)C(NC(N)=O)C(=O)NC1CCCCC1` (stereo not drawn): 17.6%.
Next, `Cc1cc(C)c2cc(C#N)c(NCCOC(=O)c3ccccc3C)nc2c1`: -54.8%.
The same measure for `C/C(=N\NC(=O)C(=O)Nc1c(C)n(C)n(-c2ccccc2)c1=O)c1ccc(Cl)s1`: -4.11%; for `O=C(O)c1ccc(N2CCN(Cc3ccc4c(c3)OCO4)CC2)c([N+](=O)[O-])c1`: 17.3%.
Consider `Cc1ccccc1NC(=O)NNC(=O)c1ccc2ccccc2c1O`, for which the “hERG current change (%, negative = inhibition) at 10uM” value came out at 16.4%.
Next, `O=[N+]([O-])c1cccc(NC(=S)N2CCc3ccccc3C2)c1`: 12.1%; `Cc1ccc(C(=O)/C=C/c2cn(CN3CCN(C)CC3)c3ccccc23)cc1`: 1.42%.
Take `Cc1cc(NC(=O)c2cc3n(n2)C(C(F)(F)F)CC(c2ccc(Cl)c(Cl)c2)N3)no1` (stereo not drawn): the “hERG current change (%, negative = inhibition) at 10uM” value was 2.64%.
The same measure for `CCOC(=O)C(C)Oc1ccc2c(C)cc(=O)oc2c1C(C)=O` (stereo not drawn): -13.8%; for `CCCCNc1cc(C)nc(NCc2ccccc2)n1`: -59%; for `COc1ccccc1C(=O)Nc1nnc(CCc2ccccc2)s1`: 7.22%.
Next, `COc1cc(CN2CC(=O)N(c3ccc(C)c(C)c3)C2=S)cc(OC)c1OC`: 0.456%; `O=C(c1ccc(S(=O)(=O)N2CCOCC2)cc1)N1CCN(c2ccccn2)CC1`: 4.62%.
Next, `Cc1nn(C)c(NC(=O)c2ccc(Cl)cc2Cl)c1Br`: -11.4%.
